Results as given in patent US8586505B2 (SDS Biotech K. K., priority 2009, dated 2013).

The compounds below were run on Tetranychus urticae female adults (assay: whole plant or invertebrate). Conditions: 48 h, read-out: Determination (mortality rate).
Experimental: A kidney bean leaf section having a diameter of 3 cm was placed on a wet sponge in a plastic cup. Thereafter, ten female adults of Tetranychus urticae were released into the plastic cup. 0.4 ml each of an agent solution prepared by diluting a 10% wettable powder of each compound shown in Table 1 to a concentration of 250 ppm was sprayed thereto. Two days later, the number of deaths was counted, and the mortality rate was then calculated.
With O=[N+]([O-])c1ccccc1C#CCCNc1ncnc2sccc12 [compound 38] the mortality at 250 ppm was 60 to 80%.
COCc1ccccc1C#CCCNc1ncnc2sccc12 [compound 45] gave a mortality at 250 ppm of 60 to 80%.
COCc1ccccc1C#CCCNc1ncnc2scc(C)c12 [compound 51] gave a mortality at 250 ppm of over 95%.
Compound Brc1csc(C#CCCNc2ncnc3sccc23)n1 [compound 64] has a mortality at 250 ppm of 60 to 80%.
COc1nc(C#CCCNc2ncnc3sccc23)cs1 [compound 67] gave a mortality at 250 ppm of 60 to 80%.
C(#Cc1csc(Oc2ccccc2)n1)CCNc1ncnc2sccc12 [compound 83, 4-[4-(2-Phenoxythiazol-4-yl)-3-butynylamino]thieno[2,3-d]pyrimidine] showed a mortality at 250 ppm of 60 to 80%.
CN1C(=O)c2ccc(C#CCCNc3ncnc4sccc34)cc2C1=O [compound 84] was tested, and the mortality at 250 ppm was 60 to 80%.
Compound C=C(C#CCCNc1ncnc2ccccc12)c1ccccc1 [compound 95] has a mortality at 250 ppm of over 95%.
Compound Ic1ccc(C#CCCNc2ncnc3ccccc23)cc1 [compound 98] has a mortality at 250 ppm of 60 to 80%.
C(#Cc1ccc(C2CCCCC2)cc1)CCNc1ncnc2ccccc12 [compound 109] showed a mortality at 250 ppm of over 95%.
CNC(=O)c1ccc(C#CCCNc2ncnc3ccccc23)cc1 [compound 126] showed a mortality at 250 ppm of 60 to 80%.
Work on O=C(O)c1ccc(C#CCCNc2ncnc3ccccc23)cc1 [compound 127] yielded a mortality at 250 ppm of 60 to 80%.
Work on COCc1ccc(C#CCCNc2ncnc3ccccc23)cc1 [compound 136] yielded a mortality at 250 ppm of over 95%.
With C(#Cc1ccc2ccccc2n1)CCNc1ncnc2ccccc12 [compound 188] the mortality at 250 ppm was 80 to 95%.
Work on Fc1ccc(Oc2nc(C#CCCNc3ncnc4ccccc34)cs2)cc1 [compound 226] yielded a mortality at 250 ppm of 60 to 80%.
In the case of Cc1c(Cl)ncnc1NCCC#Cc1ccccc1 [compound 356], the mortality at 250 ppm was 80 to 95%.

The compounds below were run on Aphis gossypii (assay: whole plant or invertebrate). Conditions: in Cucumis sativus, 48 h, read-out: Determination (mortality rate).
Experimental: A cucumber leaf section having a diameter of 3 cm was placed on a wet sponge in a plastic cup. Thereafter, five female adults of Aphis gossypii were released into the plastic cup, and they were then left at rest overnight. Thereafter, the number of new-born larvae was counted. 0.4 ml each of an agent solution prepared by diluting a 10% wettable powder of each compound shown in Table 1 to a concentration of 250 ppm was sprayed thereto. Two days later, the number of deaths was counted, and the mortality rate was then calculated.
COCc1ccccc1C#CCCNc1ncnc2sccc12 [compound 45] gave a mortality at 250 ppm of over 95%.
With Brc1csc(C#CCCNc2ncnc3sccc23)n1 [compound 64] the mortality at 250 ppm was 60 to 80%.
With COc1nc(C#CCCNc2ncnc3sccc23)cs1 [compound 67] the mortality at 250 ppm was 60 to 80%.
Work on C(#Cc1csc(Oc2ccccc2)n1)CCNc1ncnc2sccc12 [compound 83, 4-[4-(2-Phenoxythiazol-4-yl)-3-butynylamino]thieno[2,3-d]pyrimidine] yielded a mortality at 250 ppm of 60 to 80%.
Ic1ccc(C#CCCNc2ncnc3ccccc23)cc1 [compound 98] showed a mortality at 250 ppm of 60 to 80%.
Work on C(#Cc1ccc(C2CCCCC2)cc1)CCNc1ncnc2ccccc12 [compound 109] yielded a mortality at 250 ppm of 60 to 80%.
COCc1ccsc1C#CCCNc1ncnc2ccccc12 [compound 207] was tested, and the mortality at 250 ppm was over 95%.
Cc1ccsc1C#CCCNc1ncnc2ccccc12 [compound 208] was tested, and the mortality at 250 ppm was over 95%.
C(#Cc1cscn1)CCNc1ncnc2ccccc12 [compound 210] was tested, and the mortality at 250 ppm was 60 to 80%.
Work on Cc1nc(C#CCCNc2ncnc3ccccc23)cs1 [compound 211] yielded a mortality at 250 ppm of 80 to 95%.
COc1nc(C#CCCNc2ncnc3ccccc23)cs1 [compound 212] gave a mortality at 250 ppm of 60 to 80%.
With N#Cc1ccccc1Oc1nc(C#CCCNc2ncnc3ccccc23)cs1 [compound 221] the mortality at 250 ppm was 60 to 80%.
Compound CC(CC#Cc1ccccc1)Nc1ncnc2sccc12 (centres unmarked) [compound 229] has a mortality at 250 ppm of over 95%.
Work on CC(CC#Cc1ccc(F)cc1)Nc1ncnc2sccc12 (centres unmarked) [compound 230] yielded a mortality at 250 ppm of over 95%.
CC(CC#Cc1ccccc1Cl)Nc1ncnc2sccc12 (centres unmarked) [compound 231] showed a mortality at 250 ppm of over 95%.
Work on CC(CC#Cc1cccc(C(F)(F)F)c1)Nc1ncnc2sccc12 (centres unmarked) [compound 234] yielded a mortality at 250 ppm of over 95%.
With COc1ccccc1C#CCC(C)Nc1ncnc2sccc12 (centres unmarked) [compound 236] the mortality at 250 ppm was 80 to 95%.
For CC(CC#Cc1ccccc1S(C)(=O)=O)Nc1ncnc2sccc12 (centres unmarked) [compound 237], the mortality at 250 ppm was over 95%.
Cc1ccccc1C#CCC(C)Nc1ncnc2sccc12 (centres unmarked) [compound 239] showed a mortality at 250 ppm of over 95%.
Work on CC(CC#Cc1ccccc1OC(C)C)Nc1ncnc2sccc12 (centres unmarked) [compound 242] yielded a mortality at 250 ppm of over 95%.
With CC(CC#Cc1ccccc1CO)Nc1ncnc2sccc12 (centres unmarked) [compound 243] the mortality at 250 ppm was over 95%.
CC(CC#Cc1ccc(F)cc1CO)Nc1ncnc2sccc12 (centres unmarked) [compound 244] showed a mortality at 250 ppm of over 95%.
With CC(CC#Cc1ccc(Cl)cc1CO)Nc1ncnc2sccc12 (centres unmarked) [compound 245] the mortality at 250 ppm was over 95%.
With CC(CC#Cc1ccc(F)cc1Cl)Nc1ncnc2sccc12 (centres unmarked) [compound 247] the mortality at 250 ppm was 80 to 95%.
Work on CC(CC#Cc1cc(F)ccc1C(F)(F)F)Nc1ncnc2sccc12 (centres unmarked) [compound 248] yielded a mortality at 250 ppm of over 95%.
In the case of CC(CC#Cc1c(Cl)cccc1Cl)Nc1ncnc2sccc12 (centres unmarked) [compound 251], the mortality at 250 ppm was over 95%.
In the case of CC(CC#Cc1c(Cl)cccc1C(F)(F)F)Nc1ncnc2sccc12 (centres unmarked) [compound 252], the mortality at 250 ppm was over 95%.
For CC(CC#Cc1ccc(Cl)c(C(F)(F)F)c1)Nc1ncnc2sccc12 (centres unmarked) [compound 254], the mortality at 250 ppm was 80 to 95%.
Cc1ccc(C#CCC(C)Nc2ncnc3sccc23)c(Cl)c1 (centres unmarked) [compound 255] showed a mortality at 250 ppm of over 95%.
CC(CC#Cc1ccc(S(C)(=O)=O)cc1Cl)Nc1ncnc2sccc12 (centres unmarked) [compound 256] showed a mortality at 250 ppm of over 95%.
For CC(CC#Cc1ccc(C#N)cc1C(F)(F)F)Nc1ncnc2sccc12 (centres unmarked) [compound 260], the mortality at 250 ppm was over 95%.
With CC(CC#Cc1c(Cl)cc(F)cc1Cl)Nc1ncnc2sccc12 (centres unmarked) [compound 261] the mortality at 250 ppm was over 95%.
In the case of CC(CC#Cc1nccs1)Nc1ncnc2sccc12 (centres unmarked) [compound 265], the mortality at 250 ppm was over 95%.
Work on Cc1nc(C#CCC(C)Nc2ncnc3sccc23)cs1 (centres unmarked) [compound 266] yielded a mortality at 250 ppm of over 95%.
For CCCCC(CC#Cc1ccccc1)Nc1ncnc2sccc12 (centres unmarked) [compound 269], the mortality at 250 ppm was 60 to 80%.
Compound CC(CC#Cc1ccccc1)Nc1ncnc2ccccc12 (centres unmarked) [compound 270] has a mortality at 250 ppm of over 95%.
CC(CC#Cc1ccccc1Cl)Nc1ncnc2ccccc12 (centres unmarked) [compound 272] gave a mortality at 250 ppm of over 95%.
Work on CC(CC#Cc1ccccc1C(F)(F)F)Nc1ncnc2ccccc12 (centres unmarked) [compound 274] yielded a mortality at 250 ppm of over 95%.
COc1ccccc1C#CCC(C)Nc1ncnc2ccccc12 (centres unmarked) [compound 276] was tested, and the mortality at 250 ppm was 80 to 95%.
CC(CC#Cc1ccc(C(F)(F)F)cc1C(F)(F)F)Nc1ncnc2ccccc12 (centres unmarked) [compound 280] was tested, and the mortality at 250 ppm was over 95%.
In the case of CC(CC#Cc1ccc(Cl)c(C(F)(F)F)c1)Nc1ncnc2ccccc12 (centres unmarked) [compound 284], the mortality at 250 ppm was 80 to 95%.
COc1ccc(C#CCC(C)Nc2ncnc3ccccc23)c(C(F)(F)F)c1 (centres unmarked) [compound 287] was tested, and the mortality at 250 ppm was over 95%.
With Cc1nc(C#CCC(C)Nc2ncnc3ccccc23)cs1 (centres unmarked) [compound 292] the mortality at 250 ppm was over 95%.
For CCC(CC#Cc1ccc(F)cc1)Nc1ncnc2ccccc12 (centres unmarked) [compound 294], the mortality at 250 ppm was over 95%.
Work on CC(C)C(CC#Cc1ccccc1)Nc1ncnc2ccccc12 (centres unmarked) [compound 298] yielded a mortality at 250 ppm of over 95%.
For OCC(CC#Cc1ccccc1)Nc1ncnc2ccccc12 (centres unmarked) [compound 299], the mortality at 250 ppm was over 95%.
With C#CCC(Nc1ncnc2ccccc12)c1ccccc1 (centres unmarked) [compound 300, 4-[(1-Phenyl-3-butynyl)amino]quinazoline] the mortality at 250 ppm was over 95%.
Fc1cccc2c(NCCC#Cc3ccccc3C(F)(F)F)ncnc12 [compound 306] gave a mortality at 250 ppm of over 95%.
Compound FC(F)(F)c1ccccc1C#CCCNc1ncnc2c(Cl)cccc12 [compound 307] has a mortality at 250 ppm of 60 to 80%.
FC(F)(F)c1ccccc1C#CCCNc1ncnc2ccc(Cl)cc12 [compound 309] was tested, and the mortality at 250 ppm was 60 to 80%.
FC(F)(F)c1ccccc1C#CCCNc1ncnc2cccc(Cl)c12 [compound 310] showed a mortality at 250 ppm of 80 to 95%.
Work on COCc1ccccc1C#CCCNc1ncnc2c(Cl)cccc12 [compound 311] yielded a mortality at 250 ppm of 60 to 80%.
With COCc1ccccc1C#CCCNc1ncnc2cc(Cl)ccc12 [compound 312] the mortality at 250 ppm was over 95%.
Compound COCc1ccccc1C#CCCNc1ncnc2ccc(Cl)cc12 [compound 313] has a mortality at 250 ppm of over 95%.
For COCc1ccccc1C#CCCNc1ncnc2cccc(Cl)c12 [compound 314], the mortality at 250 ppm was over 95%.
COCc1ccccc1C#CCCNc1ncnc2c(F)cccc12 [compound 315] was tested, and the mortality at 250 ppm was over 95%.
With COCc1ccccc1C#CCCNc1ncnc2cc(F)ccc12 [compound 316] the mortality at 250 ppm was over 95%.
COCc1ccccc1C#CCCNc1ncnc2cccc(F)c12 [compound 318] showed a mortality at 250 ppm of over 95%.
COCc1ccccc1C#CCCNc1ncnc2cc(Br)ccc12 [compound 320] gave a mortality at 250 ppm of over 95%.
Compound COCc1ccccc1C#CCCNc1ncnc2ccc(Br)cc12 [compound 321] has a mortality at 250 ppm of over 95%.
COCc1ccccc1C#CCCNc1ncnc2c(C(F)(F)F)cccc12 [compound 323] was tested, and the mortality at 250 ppm was over 95%.
Compound COCc1ccccc1C#CCCNc1ncnc2cc(C(F)(F)F)ccc12 [compound 324] has a mortality at 250 ppm of 60 to 80%.
COCc1ccccc1C#CCCNc1ncnc2c(C)cccc12 [compound 325] gave a mortality at 250 ppm of over 95%.
Compound COCc1ccccc1C#CCCNc1ncnc2ccc(C)cc12 [compound 326] has a mortality at 250 ppm of over 95%.
For COCc1ccccc1C#CCCNc1ncnc2c(OC)cccc12 [compound 328], the mortality at 250 ppm was over 95%.
Compound COCc1ccccc1C#CCCNc1ncnc2ccc(-c3ccccc3F)cc12 [compound 334] has a mortality at 250 ppm of 60 to 80%.
Work on COCc1ccccc1C#CCCNc1ncnc2ccc(-c3cccc(F)c3)cc12 [compound 335] yielded a mortality at 250 ppm of over 95%.
Work on Cc1cccc2c(NC(C)CC#Cc3ccc(Cl)cc3C(F)(F)F)ncnc12 (centres unmarked) [compound 354] yielded a mortality at 250 ppm of 80 to 95%.
For COCc1cc(C)ccc1C#CCCNc1ncnc(C)c1Cl [compound 361], the mortality at 250 ppm was over 95%.
Work on COCc1ccccc1C#CCCNc1ncnc(Cl)c1C [compound 363] yielded a mortality at 250 ppm of 60 to 80%.
Cc1c(Cl)ncnc1NCCC#Cc1ccccc1C(F)(F)F [compound 364] was tested, and the mortality at 250 ppm was 60 to 80%.
COCc1ccccc1C#CCCNc1ncnc(Cl)c1Cl [compound 365] showed a mortality at 250 ppm of over 95%.
COCc1ccccc1C#CCCNc1ncnc(Cl)c1Br [compound 366] showed a mortality at 250 ppm of over 95%.
Compound FC(F)(F)c1ccccc1C#CCCNc1ncnc(Cl)c1Br [compound 367] has a mortality at 250 ppm of 80 to 95%.
Compound CC(CC#Cc1ccc(Cl)cc1C(F)(F)F)Nc1ncnc(C(F)(F)F)c1Cl (centres unmarked) [compound 388] has a mortality at 250 ppm of over 95%.
With Cc1ncnc(NC(C)CC#Cc2ccccc2)c1Cl (centres unmarked) [compound 389] the mortality at 250 ppm was over 95%.
